Experimental data published in PubChem BioAssay AID1347417 (National Center for Advancing Translational Sciences (NCATS), 2020).
The campaign covered roughly 120,000 compounds. About 5,300 (4.4%) were called active. Inconclusive results, whose numbers are uncertain, are shown with a selection of clear calls. Calls follow the shape of the dose curve; as a rule, active = well fitted inhibition curve with a large enough effect; inconclusive = small, poorly fitted or top-dose-only effect; inactive = no such curve, though single readings can be large or run the other way. A potency beside an inconclusive call is a rough fit, not a confirmed value.

Test: qHTS Primary assay for Inhibitors of Plasmodium falciparum Dd2 growth in vitro; also: nearly all actives have a fitted effect of over 65% in size;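 as to activity, negative = inhibition: plate controls were DMSO vehicle for no effect and reference drug for full effect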
Details: P. falciparum Dd2 growth, SYBR Green, 72 h; activity, negative = inhibition: at 28.9 µM (top of the series) unless noted; series mostly up to 28.9 µM
Summary of the method: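 Infected erythrocytes (Dd2, 0.3% parasitemia, 2.5% hematocrit final) are added to compound in RPMI-1640/Albumax II medium, grown 72 h at 37C in low oxygen, then lysed with saponin/Triton-X containing SYBR Green and read by fluorescence.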
Potency is read from the fitted curve at half-maximal effect; tags tell the direction and shape of the fitted curve.

SMILES	Potency	activity, negative = inhibition
CCc1ccccc1N(CC)C(=O)c1cc2c(s1)-c1ccccc1OC2	inconclusive: 17.8 µM [inhibitor, single point]	–
O=C(CCCC1C(=O)Nc2ccccc21)NCCc1noc(-c2ccccc2)n1 (stereo not given)	inconclusive: 3.98 µM [inhibitor, partial curve]	–
CCOc1ccc(CN(CCc2ccc3c(c2)OCO3)Cc2ccc(C)cc2)cc1	active: 10 µM	–
Cc1ccccc1CSc1nc2nc(C)c(Cc3ccccc3)c(C)n2n1	–	inactive: -14.3%
CCCOc1ccc(Cl)cc1CNC(=O)C1CCN(CC(N)=O)CC1	inconclusive: 10 µM [inhibitor, single point]	–
O=C(c1ccco1)N1CCC2(CC1)NCCc1c2[nH]c2ccccc12	inconclusive: 2 µM [inhibitor, partial curve, poor fit]	–
COc1ccc(N2CCN(CCCNC(=O)c3cnn(-c4ccc(F)cc4)c3-n3cccc3)CC2)cc1	inconclusive: 8.91 µM [inhibitor, partial curve, poor fit]	–
COc1ccc(N2CCN(c3nc(-c4ccccc4F)nc4ccccc34)CC2)cc1	inconclusive: 10 µM [inhibitor, single point]	–
O=C(NCc1cccnc1)c1cc(-c2ccccc2F)cc2c1OCCN2Cc1cccnc1	inconclusive: 1.58 µM [inhibitor, partial curve, poor fit]	–
COc1ccc(C(=O)Nc2ccc(-c3nnc4n3CCCC4)cc2)cc1	inconclusive: 7.94 µM [inhibitor, partial curve, poor fit]	–
Cc1nnc(N2CCN(c3ccccc3F)CC2)c2c1nnn2Cc1ccc(F)cc1	inconclusive: 14.1 µM [inhibitor, single point]	–
Fc1cccc(CN2CCNc3cc(Nc4cccnc4)ncc3C2)c1	inconclusive: 12.6 µM [inhibitor, partial curve, poor fit]	–
CC(C)CCC(C)Nc1ncnc2c1CN(C1CCCNCC1)C(=O)CN2C (stereo not given)	inconclusive: 12.6 µM [inhibitor, partial curve, poor fit]	–
O=C1N(Cc2ccccc2)c2ccccc2C12CCN([S+](=O)([O-])c1cccc(C(F)(F)F)c1)C2 (stereo not given)	inconclusive: 3.98 µM [inhibitor, single point]	–
CC1=C(C(=O)NCC2Cn3cccc3C(=O)N2Cc2ccccc2)C2(CCCCC2)OC1=O (stereo not given)	inconclusive: 17.8 µM [inhibitor, single point]	–
COc1ccc(-n2ncc(C(=O)N3CCN(c4ccccn4)CC3)c2C2CCN(C(=O)OC(C)(C)C)CC2)cc1	inconclusive: 17.8 µM [inhibitor, single point]	–
COc1ccc(C(=O)N2CCC(N3C(=O)C4(CCCCC4)C3c3ccncc3)CC2)cn1 (stereo not given)	inconclusive: 10 µM [inhibitor, single point]	–
CCOC(=O)c1ccccc1NS(=O)(=O)c1c(-c2ccc(C)cc2)csc1C(=O)OC	inconclusive: 8.91 µM [inhibitor, partial curve, poor fit]	–
CCN(C(=O)CN1C=C(C(=O)OC)C(C)=NS1(=O)=O)c1cccc(C)c1	inconclusive: 15.8 µM [inhibitor, single point]	–
Fc1ccc(-c2ccnc3nc(C4CCC4)nn23)cc1	inconclusive: 4.47 µM [inhibitor, partial curve]	–

SMILES	Potency	activity, negative = inhibition
O=C(Cc1c[nH]c2ncc(-c3ccc(F)c(Cl)c3)cc12)NCc1cccnc1	active: 4.47 µM	–
CCN(C(=O)Cn1ncc2c1-c1cc(C)ccc1OC2)c1cc(Cl)ccc1OC	inconclusive: 17.8 µM [inhibitor, single point]	–
COCCn1ncc(N2CCCC(CC(=O)NCCC3=CCCCC3)C2)cc1=O (stereo not given)	inconclusive: 17.8 µM [inhibitor, single point]	–
CCc1ccccc1NC(=O)CSc1ncc2c(n1)-c1ccccc1N(Cc1ccc(C)cc1)S2(=O)=O	inconclusive: 14.1 µM [inhibitor, single point]	–
CN1CCCN(C(=O)Cc2ccccc2F)c2ccccc21	inconclusive: 17.8 µM [inhibitor, single point]	–
Cc1ccc(C(=O)N2C(C(=O)NCC(C)C)COC23CCN(C(=O)c2cccc(Cl)c2)CC3)cc1 (stereo not given)	active: 10 µM	–
COc1ccc(C2Cn3nnc(C(=O)N4CCN(C(=O)c5ccc(C)cc5)CC4)c3CO2)cc1 (stereo not given)	inconclusive: 4.47 µM [inhibitor, partial curve, poor fit]	–
Cc1ccc(NC(=O)CCc2ccnc(N3CCCC3)c2)c(C)c1	inconclusive: 7.08 µM [inhibitor, partial curve, poor fit]	–
O=C(O)COc1ccccc1CN1CCN(Cc2cccs2)CC1	–	inactive: -1.79%
Cc1noc(C)c1[S+](=O)([O-])NC1CCCN(c2nc3ncccc3o2)C1 (stereo not given)	–	inactive: -12.5%
CC(C)Oc1ccc(CNC(=O)c2ccc(NC(=O)c3nsc4ccccc34)cc2)cc1	inconclusive: 17.8 µM [inhibitor, single point]	–
Cn1cnc(S(=O)(=O)N2CCCC(C(=O)NC3CCCCC3)CCNC(=O)CC2)c1 (stereo not given)	inconclusive: 2.82 µM [inhibitor, full curve]	–
Cc1cc(OC2CNC2)ccc1F	–	inactive: -12.1% [at 44.1 µM]
CCNC(=O)N[C@H]1C[C@@H](Cc2cc(CN3CCCCC3)on2)C1(C)C	–	inactive: -23.5% [at 44.1 µM]
N#Cc1ccc(CN2CC[C@H](c3nnc(-c4ccccc4)o3)C2)cc1	inconclusive: 22.4 µM [inhibitor, single point]	–
O=C(Nc1cccc(-c2ccc(N3CCCC3)nn2)c1)Nc1cc(F)ccc1F	inconclusive: 15.8 µM [inhibitor, partial curve, poor fit]	–
O=C(O)c1ccccc1C(=O)N1CC[C@H]2COC(=O)N2c2cc(F)ccc2C1	–	inactive: -6.81% [at 44.1 µM]
COc1ccc(OC)c(-c2nc3cc4c(cc3cc2CN2CCCOCC2)OCO4)c1	inconclusive: 11.2 µM [inhibitor, single point]	–
CN(C(=O)Cc1ccc(F)cc1)C1CCCc2ccccc21 (stereo not given)	active: 15.8 µM	–
Cc1cccc(C(=O)N2C[C@@H](F)C[C@H]2C(=O)N2CCc3ccccc3C2)c1	–	inactive: 12.3%
